Experimental data taken from PMC4336329 (PLoS ONE, 2015).
Screen size: about 310,000 compounds; about 2,200 (0.71%) showed an effect of 50% or more. The effect is printed as a negative number. This is one part of the list.

biological target: human ether-à-go-go-related gene (hERG) potassium channel (human, UniProt Q12809); test: primary screen, population patch clamp on CHO cells stably expressing hERG
Sequence (Q12809 whole entry, looked up): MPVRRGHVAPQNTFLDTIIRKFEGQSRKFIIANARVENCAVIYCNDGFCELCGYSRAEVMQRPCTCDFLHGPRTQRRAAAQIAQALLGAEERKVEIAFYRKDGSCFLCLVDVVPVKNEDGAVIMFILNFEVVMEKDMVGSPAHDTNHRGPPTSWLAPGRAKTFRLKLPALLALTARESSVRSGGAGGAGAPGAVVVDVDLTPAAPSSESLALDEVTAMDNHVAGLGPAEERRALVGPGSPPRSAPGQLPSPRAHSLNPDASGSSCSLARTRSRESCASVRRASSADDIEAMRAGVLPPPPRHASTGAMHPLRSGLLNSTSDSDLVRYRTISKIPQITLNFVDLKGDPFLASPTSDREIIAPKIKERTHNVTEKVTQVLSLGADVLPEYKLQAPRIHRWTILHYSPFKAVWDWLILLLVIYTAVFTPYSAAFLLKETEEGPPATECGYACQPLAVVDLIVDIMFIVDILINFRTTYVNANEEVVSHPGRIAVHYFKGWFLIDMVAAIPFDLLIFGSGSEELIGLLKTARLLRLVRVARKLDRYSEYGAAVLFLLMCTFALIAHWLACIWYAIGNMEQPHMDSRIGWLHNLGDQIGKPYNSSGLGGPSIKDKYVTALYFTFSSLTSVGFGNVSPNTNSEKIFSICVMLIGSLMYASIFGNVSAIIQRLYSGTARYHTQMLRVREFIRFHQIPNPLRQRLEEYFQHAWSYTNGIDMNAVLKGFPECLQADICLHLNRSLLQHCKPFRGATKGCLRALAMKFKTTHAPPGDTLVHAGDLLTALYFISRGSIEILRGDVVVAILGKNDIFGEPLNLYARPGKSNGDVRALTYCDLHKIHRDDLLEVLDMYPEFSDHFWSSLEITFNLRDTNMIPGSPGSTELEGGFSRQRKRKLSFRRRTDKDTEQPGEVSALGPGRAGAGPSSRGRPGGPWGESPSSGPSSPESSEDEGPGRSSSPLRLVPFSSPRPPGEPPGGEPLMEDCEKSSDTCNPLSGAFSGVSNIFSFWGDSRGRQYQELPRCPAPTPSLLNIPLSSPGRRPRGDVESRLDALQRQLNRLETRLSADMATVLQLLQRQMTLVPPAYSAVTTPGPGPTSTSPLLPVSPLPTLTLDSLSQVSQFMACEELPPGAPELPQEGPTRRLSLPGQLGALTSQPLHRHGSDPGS

Structure (SMILES) | hERG current change (%, negative = inhibition) at 1uM [%]
O=C(CN1CCN(S(=O)(=O)c2ccc(Cl)s2)CC1)N1CCCCC1 | -0.262
Cc1ccc(C2=[N+]([O-])C3(CCCCC/C3=N\NC(N)=S)N(O)C2(C)C)o1 (stereo not shown) | 13.8
Cc1cc(Nc2ccc(C(C)C)cc2)n2ncnc2n1 | -17.3
COc1ccc(C2(CNC(=O)c3ccc(C)cc3)CCOCC2)cc1 | 3.36
COc1nc(C)nc2c1ccc1ccccc12 | 6.65
Cc1ccc(C(C)NC(=O)c2ccc3c(c2)OCCO3)cc1C (stereo not shown) | 4.6
CCOC(=O)C1(CCc2ccccc2)CCN(Cc2ccco2)CC1 | -42.7
CCOC(=O)/C(C#N)=C/c1cn(CCC(=O)O)nc1-c1ccc(OC)cc1 | 10.6
CC(=O)c1nnn(-c2cccc([N+](=O)[O-])c2)c1C | 6.76
O=C(c1ccccc1)N(Cc1cccs1)C1CCS(=O)(=O)C1 (stereo not shown) | 13.9
CC1CCCN(C(=O)COc2ccc(NC(=O)c3cccs3)cc2)C1 (stereo not shown) | 12
COC(=O)c1ccccc1NC(=O)c1cc(OC)cc(OC)c1 | -0.763
CCCc1nc2oc3ccccc3c(=O)c2c(=O)n1CCCOC | 7.04
CCc1ccc2ncc(C(=O)c3ccccc3)c(N3CCOCC3)c2c1 | 5.69
C=CCOC(=O)C1=C[C@H](C(C)(C)C)[C@@H](CCCO)[C@H](OCC)O1 | 19.4
CCN(CCn1cccn1)C(=O)c1cc(COc2cc(C)ccc2C)on1 | -2.57
CCOC(=O)C1CCN(C(=O)c2ccc3c(c2)NC(=O)/C(=C\c2ccc(C)cc2)S3)CC1 | 7.95
COCCn1c(SCC(=O)N2CCOCC2)nnc1-c1ccco1 | 25.1
O=C1NC(=O)C2(Cc3ccccc3N3CCCC32)C(=O)N1c1ccccc1 (stereo not shown) | 14.2
O=C(COC(=O)COc1ccccc1F)Nc1ccc(Cl)cn1 | 7.31
Cc1ccc(OCc2ccc(C(=O)Nc3nccs3)o2)cc1 | -3.4
Cc1nc(Nc2cc(F)ccc2C)c2nnn(Cc3ccccc3)c2n1 | 2.56

Structure (SMILES) | hERG current change (%, negative = inhibition) at 1uM [%]
O=C(N/N=C(\c1ccccc1)c1cccnc1)c1cc(O)ccc1O | 11.4
Cc1cccc(C(=O)OCC(=O)NCc2ccco2)c1 | 6.36
C=CCN(CC=C)CCOc1ccc(OC(C)C)cc1.O=C(O)C(=O)O | -14.5
CCN(CC)S(=O)(=O)c1ccc(Cl)c(C(=O)Nc2cc(C)nn2-c2ccccc2C(F)(F)F)c1 | 3.06
CCOCCCNC(=O)c1c[nH]c2ccc(OCC)cc2c1=O | 10.9
COc1ccccc1/C=N/NC(=O)CSc1cc(C)nc2ccccc12 | 10.4
COc1ccc2c(c1)c(/C=C/c1cc[n+](C)cc1)cn2C.[I-] | 14.6
CCOc1ccccc1N(CC(=O)Nc1c(C)n(C)n(-c2ccccc2)c1=O)S(=O)(=O)c1ccccc1 | 3.66
O=C(CSc1nc2c(c(=O)n1-c1ccc(F)cc1)SCC2)N1CCCC1 | 8.13
COc1cccc(N2CN(CCc3ccccc3)CNC2=S)c1 | 8.03
O=C(O)c1ccc2nc(C(F)(F)F)[nH]c2c1 | 5.07
CN1CCN(c2ccc(S(=O)(=O)N3CCCCC3)cc2NC(=O)COc2ccc([N+](=O)[O-])cc2)CC1 | -1.77
O=S(=O)(NC1CCCCC1NS(=O)(=O)c1ccc(F)cc1)c1ccc(F)cc1 (stereo not shown) | 9.19
N=c1c2c3c(sc2ncn1CCN1CCOCC1)CCCC3 | 3.39
CC1=C(C(=O)O)N2C(=O)C(NC(=O)c3nn(C)cc3[N+](=O)[O-])C2SC1 (stereo not shown) | 17.6
COc1ccc(C(=O)Nc2ccc(NC(=O)c3cccs3)c(OC)c2)cc1Cl | -3.7
Cn1c(SCC(=O)N=Nc2c(O)[nH]c3ccccc23)nc2ccccc21 | 15.1
COc1ccccc1CNC(=O)C1CCCN(S(C)(=O)=O)C1 (stereo not shown) | 13.6
Cc1ccc2c(C)c(C(=O)N(Cc3ccc(F)cc3)C3CCS(=O)(=O)C3)oc2c1 (stereo not shown) | 6.92
Cc1ccc(/C=C(\C#N)C(=O)Nc2ccccn2)o1 | 10
CCN(c1ccc(OC)cc1)S(=O)(=O)c1cc(-c2cc(C)no2)ccc1OC | 11.4
C=C(c1ccccc1C)[n+]1ccccc1 | 19.5

Structure (SMILES) | hERG current change (%, negative = inhibition) at 1uM [%]
COc1ccccc1N(CC(=O)N/N=C(\C)c1cccc(Br)c1)S(C)(=O)=O | 8.77
O=C(O)CCn1ccnc1-c1ccccc1 | -2.73
Cc1c(Cl)cccc1NC(=S)N=Nc1c(O)n(CN2CCOCC2)c2ccccc12 | 8.7
COc1ccc(/C=N/N(c2ccccc2)c2ccccc2)cc1O | 3.33
COc1ccc(S(=O)(=O)NC(CC(C)C)C(=O)NC(C)c2cccs2)cc1 (stereo not shown) | 0.791
O=C(O)c1ccc2c(=O)[nH]c(CN3CCOCC3)nc2c1 | 15.6
O=C(Cc1cccs1)Nc1nnc(-c2ccccc2)s1 | 11.2
O=C(N/N=C/C=C\c1ccccc1[N+](=O)[O-])c1ccco1 | 6.82
CCOC(=O)C1=C(COC(=O)CCNS(=O)(=O)c2ccc(NC(C)=O)cc2)NC(=O)NC1C (stereo not shown) | 10.6
COc1ccc(OC)c(NC(=O)Nc2nnc(N3CCCCC3C)s2)c1 (stereo not shown) | 6.99
O=C(C1CCN(Cc2ccccc2)CC1)N1CCCC1 | 8.55
NNc1cc([N+](=O)[O-])cc2c1C(=O)N(Cc1ccccc1)S2=O (stereo not shown) | 7.78
Cn1nc(C(C)(C)C)c([N+](=O)[O-])c1C(=O)Nc1cccc2ccccc12 | 6.53
O=C(Nc1ccc(F)c([N+](=O)[O-])c1)c1ccc2c(c1)OCCO2 | 14.2
CC(C)(C)Cc1nnc(NS(=O)(=O)c2ccccc2)s1 | 14
COCC(=O)N1CCC(Oc2ccc(C(=O)N[C@H](C(=O)OC)C(C)C)cc2)CC1 | 16.8
CNc1oc(-c2ccccc2Cl)nc1P(=O)(c1ccccc1)c1ccccc1 | 3.1
CC(Cc1ccccc1)NC(=O)CSc1nc2nc3c(cc2c(=O)n1-c1ccccc1)COC(C)(C)C3 (stereo not shown) | 0.807
COc1ccc2c(C(=O)c3ccc(C)cc3)n(CCCC(N)=O)[n+]([O-])c2c1 | -8.73
COc1ccc(C(=O)COC(=O)CCCN=C2NS(=O)(=O)c3ccccc32)c(OC)c1 | -0.594
O=C1CCC(C(=O)OCC(=O)c2c[nH]c3ccccc23)=NN1 | -2.13
Cc1ccccc1N1C(=O)C2ON(c3ccccc3)C(c3cccnc3)C2C1=O (stereo not shown) | 9.69

Structure (SMILES) | hERG current change (%, negative = inhibition) at 1uM [%]
Cc1ccccc1NC(=O)C1CCN(c2cnccn2)CC1 | -11.7
CCc1nnc(NC(=O)CCC(=O)N2CCN(C3c4ccccc4-c4ccccc43)CC2)s1 | 9.13
Cc1nc(NC(=O)C2CCCC2)sc1Cc1ccc2c(c1)OCO2 | 0.228
Brc1ccc(-c2noc(COc3ccc4ccccc4c3)n2)o1 | 0.61
COc1ccc(CNC(=O)c2cc(C3CC3)nc3c2cnn3C(C)C)cc1OC | 1.46
O=C(Nc1ccc(S(=O)(=O)Nc2ncccn2)cc1)c1ccco1 | 8.24
C[n+]1cccc(C(=O)Nc2ccccc2)c1.[Cl-] | 15.4
O=C(NCc1cccs1)C1CC(=O)N(c2ccc(Cl)cc2)C1 (stereo not shown) | -11
Cc1cc(C2=NNC(=NC3CC3)SC2)c(C)n1-c1c(C)n(C)n(-c2ccccc2)c1=O.Cl | 2.13
O=C(Nc1ccc2nccnc2c1)Nc1ccccc1Cl | 10.3
O=C(CSc1nnnn1-c1ccc(Cl)cc1)N1CCc2ccccc2C1 | -1.89
Cc1ccc(-c2c(C#N)c(N)nc3c2CCCCCC3)o1 | 11.9
O=C(NCCc1ccc(C(F)(F)F)cc1)C1COc2ccccc2O1 (stereo not shown) | 13
COC(=O)CC(c1ccc(C#N)cc1)n1c(C)ccc1C (stereo not shown) | 1.2
Cc1ccc(C(=O)Nc2ccc(Nc3ccccc3)cc2)cc1Br | 5.29
COc1ccc(C)cc1NC(=O)Nc1cccc(C)c1 | 2.98
COc1ccc(NC(=O)c2ccccc2Cl)cc1NC(=O)CN1CCOCC1 | 9.66
O=C(COc1ccc(Cl)cc1)N1CCN(c2ccc([N+](=O)[O-])c(N3CCCCC3)c2)CC1 | 12.1
Cc1ccc(C(=O)NC(=S)Nc2ccc(S(=O)(=O)N3CCN(C)CC3)cc2)cc1 | 17.3
O=C1CC(/C=C/c2ccncc2)=Nc2ccccc2N1 | 1.92
C#CCNC(=O)C1=C[C@@H](c2ccc(C(F)(F)F)cc2)[C@H](CCCO)[C@@H](OCC)O1 | 2.03
O=C(Cn1[nH]c(=O)c2ccccc2c1=O)NC1CCN(Cc2ccccc2)CC1 | 12.9
